Seven molecules from US20200087367A1 (ACCELERON PHARMA, published 2020) can be followed below.

The term Kd denotes the concentration at which binding is half-saturated. A higher Kd goes with weaker binding. As a reminder, the koff is a measure of how fast the partners let go of each other. The term kon denotes the second-order rate constant of association. A lower kon goes with slow association.

“And” between values parts separate entries of the source, which are not always exact repeats. Identical values can stand only once.

The target of assay [1] is T1, BMP9 (human, UniProt Q9UK05 320-429).
T1 construct: also called hBMP-9; hBMP9
T1 sequence (looked up): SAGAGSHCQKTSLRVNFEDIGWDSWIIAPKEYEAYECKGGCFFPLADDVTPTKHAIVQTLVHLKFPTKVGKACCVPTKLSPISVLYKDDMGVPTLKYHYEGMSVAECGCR
Description: SPR (Biacore), BMPRII-Fc captured by anti-Fc antibody, ligand injected. On the procedure:
(§1) A Biacore™-based binding assay was used to determine the ligand binding selectivity of the BMPRII-Fc protein complex described above. The BMPRII-Fc homodimer was captured onto the system using an anti-Fc antibody, and ligands were injected and allowed to flow over the captured receptor protein.

The target of assay [2] is T2, BMP10 (human, UniProt O95393 317-424).
T2 construct: also called hBMP-10; hBMP10
T2 sequence: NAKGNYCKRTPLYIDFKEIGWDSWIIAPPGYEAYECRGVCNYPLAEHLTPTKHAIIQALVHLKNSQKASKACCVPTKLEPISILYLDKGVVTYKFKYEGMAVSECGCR
The description is as above. On the procedure: as §1

For the next assay, the target named is T3, BMP3b (human, UniProt P55107 369-478).
T3 construct: also called GDF10
T3 sequence (looked up): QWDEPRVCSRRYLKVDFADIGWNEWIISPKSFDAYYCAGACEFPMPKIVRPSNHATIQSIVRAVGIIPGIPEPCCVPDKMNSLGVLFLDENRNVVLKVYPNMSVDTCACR
The experiment in a line: SPR (Biacore), BMP10pro-Fc captured by anti-Fc antibody, ligand injected. On the procedure:
(§2) The BMP10pro-Fc proteins were separately was captured onto the system using an anti-Fc antibody, and ligands were injected and allowed to flow over the captured receptor protein. […] The mouse Fc equivalent constructs behaved similarly. […] The affinity of BMP10pro(22-315)-hFc for BMP3b was not assessed.
(In general: SPR reads the build-up and loss of mass on a sensor chip optically.)

Assay [3] has as its target T1, BMP9. The description is as above. On the procedure: as §2
Assay [4] deals with T4, BMP5 (human, UniProt P22003 317-454, limits assumed).
T4 sequence (looked up): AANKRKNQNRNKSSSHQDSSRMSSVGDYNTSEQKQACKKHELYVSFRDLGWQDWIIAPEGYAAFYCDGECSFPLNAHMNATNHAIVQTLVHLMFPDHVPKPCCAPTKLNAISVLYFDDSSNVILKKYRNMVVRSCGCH
The assay is described as above. On the procedure:
as §2

Assay [5] has as its target T2, BMP10. Description: cell-based or functional assay.
For assay [6], the target named is T2, BMP10. Description: cell-based or functional assay. The source holds these as a separate data set.
Assay [7] concerns the target T1, BMP9. Description: SPR kinetics; CHO-cell-derived protein.
Assay [8] deals with T2, BMP10. Description: SPR kinetics; CHO-cell-derived protein.
The target in another assay is T5, TGF-β3 (human, UniProt P10600 301-412).
T5 construct: also called hTGF-β3
T5 sequence (looked up): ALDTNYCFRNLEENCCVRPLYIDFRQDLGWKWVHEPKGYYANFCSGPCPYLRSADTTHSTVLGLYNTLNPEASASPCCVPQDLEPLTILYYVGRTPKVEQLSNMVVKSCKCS
Description: SPR ligand screen; '-' = Binding undetectable.

The next assay has as its target T6, hBMP-2/7 (human, UniProt P12643 283-396; P18075 293-431).
T6 sequence (looked up) 1: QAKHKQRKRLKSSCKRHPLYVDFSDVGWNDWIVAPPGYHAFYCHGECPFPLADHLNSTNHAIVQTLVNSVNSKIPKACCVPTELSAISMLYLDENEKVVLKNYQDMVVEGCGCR
T6 sequence (looked up) 2: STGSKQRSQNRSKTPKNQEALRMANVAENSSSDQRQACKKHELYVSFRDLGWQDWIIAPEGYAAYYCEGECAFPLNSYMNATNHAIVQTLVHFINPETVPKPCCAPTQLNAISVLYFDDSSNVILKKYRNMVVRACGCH
Description: SPR ligand screen; '-' = Binding undetectable.

A further assay addresses T7, activin A (human, UniProt P08476 311-426).
T7 construct: also called hActivin A
T7 sequence (looked up): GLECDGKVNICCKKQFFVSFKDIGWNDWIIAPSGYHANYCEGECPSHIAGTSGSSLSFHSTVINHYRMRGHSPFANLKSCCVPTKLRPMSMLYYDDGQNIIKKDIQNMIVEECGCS
The experiment in a line: SPR ligand screen; '-' = Binding undetectable.

The next assay concerns the target T8, BMP2 (human, UniProt P12643 283-396).
T8 construct: also called hBMP-2
T8 sequence (looked up): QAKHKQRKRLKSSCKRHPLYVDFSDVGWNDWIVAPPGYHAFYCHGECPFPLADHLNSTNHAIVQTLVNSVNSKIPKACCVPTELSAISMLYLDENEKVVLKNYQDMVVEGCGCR
The experiment in a line: SPR ligand screen; '-' = Binding undetectable.

The target in a further assay is T9, BMP7 (human, UniProt P18075 293-431).
T9 construct: also called hBMP-7
T9 sequence (looked up): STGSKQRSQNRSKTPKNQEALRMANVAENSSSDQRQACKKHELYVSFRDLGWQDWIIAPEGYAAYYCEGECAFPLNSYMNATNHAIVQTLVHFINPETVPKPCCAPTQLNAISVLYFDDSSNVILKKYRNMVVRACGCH
The experiment in a line: SPR ligand screen; '-' = Binding undetectable.

A further assay has as its target T10, TGF-β1 (human, UniProt P01137 partial chain).
T10 construct: also called hTGF-β1
The experiment in a line: SPR ligand screen; '-' = Binding undetectable.

Another assay addresses T11, TGF-β2 (human, UniProt P61812 303-414).
T11 construct: also called hTGF-β2
T11 sequence (looked up): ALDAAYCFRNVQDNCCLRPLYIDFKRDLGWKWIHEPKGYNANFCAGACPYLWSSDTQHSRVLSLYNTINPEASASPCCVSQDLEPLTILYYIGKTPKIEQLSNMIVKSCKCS
Description: SPR ligand screen; '-' = Binding undetectable.

Assay [9] has as its target T2, BMP10. Description: SPR kinetics; HEK293-cell-derived protein.
Assay [10] deals with T1, BMP9. The experiment in a line: SPR kinetics; HEK293-cell-derived protein.
The target in another assay is T12, BMP6 (human, UniProt P22004 382-513, limits assumed).
T12 sequence (looked up): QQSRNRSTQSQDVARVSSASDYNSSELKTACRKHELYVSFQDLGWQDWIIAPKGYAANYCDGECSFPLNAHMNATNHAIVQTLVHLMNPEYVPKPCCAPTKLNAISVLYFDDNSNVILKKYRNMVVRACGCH
Description: SPR (Biacore), ligand amine-coupled to chip, Fc fusion injected.

Assay [11] deals with T1, BMP9. The assay is described as above.
Assay [12] concerns the target T4, BMP5. The assay is described as above.
The target in assay [13] is T2, BMP10. Described as above.

TGF-β1, sequence (P01137 279-390 limits assumed): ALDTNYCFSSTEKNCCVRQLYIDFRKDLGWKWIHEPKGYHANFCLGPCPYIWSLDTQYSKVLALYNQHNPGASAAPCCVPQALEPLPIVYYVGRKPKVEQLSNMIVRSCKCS

B1: BMPRII-Fc fusion protein (Fc fusion)
chain: SQNQERLCAFKDPYQQDLGIGESRISHENGTILCSKGSTCYGLWEKSKGDINLVKQGCWSHIGDPQECHYEECVVTTTPPSIQNGTYRFCCCSTDLCNVNFTENFPPPDTTPLSPPHSFNRDETG[human IgG1 Fc and a few adjoining residues not shown]
notes: Processed polypeptide; extracellular domain of human BMPRII, linker, human IgG1 Fc; C-terminal lysine may optionally be absent; also called BMPRII-Fc homodimer; homodimeric BMPRII-Fc
B1: in the assay with BMP9 [1], binding was put at a Kd of 2100 pM, the koff is 0.026 s⁻¹ and the kon was 1.2e+07 M⁻¹ s⁻¹. In the assay with BMP10 [2], this molecule yielded a Kd of 100 pM, a koff of 0.0025 s⁻¹ and a kon of 2.6e+07 M⁻¹ s⁻¹.

B2: BMP10pro(22-312)-hFc (Fc fusion)
chain: SPIMNLEQSPLEEDMSLFGDVFSEQDGVDFNTLLQSMKDEFLKTLNLSDIPTQDSAKVDPPEYMLELYNKFATDRTSMPSANIIRSFKNEDLFSQPVSFNGLRKYPLLFNVSIPHHEEVIMAELRLYTLVQRDRMIYDGVDRKITIFEVLESKGDNEGERNMLVLVSGEIYGTNSEWETFDVTDAIRRWQKSGSSTHQLEVHIESKHDEAEDASSGRLEIDTSAQNKHNPLLIVFSDDQSSDKERKEELNEMISHEQLPELDNLGLDSFSSGPGEEALLQMRSNIIYDSTATG[human IgG1 Fc and a few adjoining residues not shown]
notes: C-terminal lysine may optionally be absent
Consider B2, for which the binding result with BMP3b, with BMP9 [3] and with BMP5 [4] was “binds” each time. In addition, the “BMP10 antagonizing activity against that of BMP10pro(22-315)-hFc” value with BMP10 [5] was ≥ 3 fold. Besides, the “IC50 (BMP10), SBE4-luc luciferase reporter in HMVEC cells” value in the assay with BMP10 [6] is 17.7 ng/ml and 150 pM.

B3: hENG(26-359)-hFc (Fc fusion)
chain: ETVHCDLQPVGPERDEVTYTTSQVSKGCVAQAPNAILEVHVLFLEFPTGPSQLELTLQASKQNGTWPREVLLVLSVNSSVFLHLQALGIPLHLAYNSSLVTFQEPPGVNTTELPSFPKTQILEWAAERGPITSAAELNDPQSILLRLGQAQGSLSFCMLEASQDMGRTLEWRPRTPALVRGCHLEGVAGHKEAHILRVLPGHSAGPRTVTVKVELSCAPGDLDAVLILQGPPYVSWLIDANHNMQIWTTGEYSFKIFPEKNIRGFKLPDTPQGLLGEARMLNASIVASFVELPLASIVSLHASSCGGRLQTSPAPIQTTPPKDTCSPELLMSLITGGG[human IgG1 Fc not shown]
notes: also called Human ENG(26-359)-hFc
For B3, the Kd in the assay with BMP9 [7] came to 4.2 pM; in the assay with BMP10 [8] it was 86 pM. Besides, the koff with BMP9 [7] was 0.00035 s⁻¹; in the assay with BMP10 [8], 0.0023 s⁻¹. The binding result in the assay with TGF-β3 was “no binding (tested: 50 nM)”; in the assay with hBMP-2/7 it was “no binding (tested: 100 nM)”; with activin A it was “no binding (tested: 100 nM)”; in the assay with BMP2 it was “no binding (tested: 100 nM)”; in the assay with BMP7, “no binding (tested: 100 nM)”; in the assay with TGF-β1, “no binding (tested: 100 nM)”. The binding result with TGF-β2 is listed as “no binding (tested: 100 nM)”.

B4: hENG(26-378)-hFc (Fc fusion)
chain: ETVHCDLQPVGPERDEVTYTTSQVSKGCVAQAPNAILEVHVLFLEFPTGPSQLELTLQASKQNGTWPREVLLVLSVNSSVFLHLQALGIPLHLAYNSSLVTFQEPPGVNTTELPSFPKTQILEWAAERGPITSAAELNDPQSILLRLGQAQGSLSFCMLEASQDMGRTLEWRPRTPALVRGCHLEGVAGHKEAHILRVLPGHSAGPRTVTVKVELSCAPGDLDAVLILQGPPYVSWLIDANHNMQIWTTGEYSFKIFPEKNIRGFKLPDTPQGLLGEARMLNASIVASFVELPLASIVSLHASSCGGRLQTSPAPIQTTPPKDTCSPELLMSLIQTKCADDAMTLVLKKELVATG[human IgG1 Fc and a few adjoining residues not shown]
notes: also called Human ENG(26-378)-hFc (truncated Fc)
As to B4, in the assay with BMP10 [9], the Kd stood at 95 pM and the koff was 0.0019 s⁻¹. In the assay with BMP9 [10], this molecule returned an equilibrium dissociation constant (Kd) of 6.7 pM and a koff of 0.00034 s⁻¹.

B5: ActRIIA-hFc (Fc fusion)
chain: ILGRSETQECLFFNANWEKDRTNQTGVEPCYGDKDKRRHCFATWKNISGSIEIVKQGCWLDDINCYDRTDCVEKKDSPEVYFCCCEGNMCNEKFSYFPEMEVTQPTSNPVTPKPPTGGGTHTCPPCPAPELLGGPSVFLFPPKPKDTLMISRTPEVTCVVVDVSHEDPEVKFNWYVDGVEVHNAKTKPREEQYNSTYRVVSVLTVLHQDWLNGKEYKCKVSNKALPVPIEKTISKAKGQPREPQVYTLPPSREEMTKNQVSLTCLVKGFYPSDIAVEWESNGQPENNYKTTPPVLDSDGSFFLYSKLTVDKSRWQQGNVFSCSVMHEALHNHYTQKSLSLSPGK
notes: Extracellular domain of human ActRIIA, linker, human Fc
Turning to B5, the dissociation constant (Kd) in the assay with BMP6 worked out at 556 pM; with BMP9 [11] it was 10400 pM; with BMP5 [12], 1140 pM; with BMP10 [13] it was 333 pM.

B6: BMP10pro(22-315)-hFc (Fc fusion)
chain: SPIMNLEQSPLEEDMSLFGDVFSEQDGVDFNTLLQSMKDEFLKTLNLSDIPTQDSAKVDPPEYMLELYNKFATDRTSMPSANIIRSFKNEDLFSQPVSFNGLRKYPLLFNVSIPHHEEVIMAELRLYTLVQRDRMIYDGVDRKITIFEVLESKGDNEGERNMLVLVSGEIYGTNSEWETFDVTDAIRRWQKSGSSTHQLEVHIESKHDEAEDASSGRLEIDTSAQNKHNPLLIVFSDDQSSDKERKEELNEMISHEQLPELDNLGLDSFSSGPGEEALLQMRSNIIYDSTARIRTG[human IgG1 Fc and a few adjoining residues not shown]
notes: C-terminal lysine may optionally be absent; also called BMP10 propeptide-Fc fusion protein
On to B6, for which the binding result with BMP9 [3] and in the assay with BMP5 [4] was “binds” each time. Moreover, in the assay with BMP10 [6], the “IC50 (BMP10), SBE4-luc luciferase reporter in HMVEC cells” value is 61.2 ng/ml and 517 pM.

B7: ActRIIA-mFc (Fc fusion)
chain: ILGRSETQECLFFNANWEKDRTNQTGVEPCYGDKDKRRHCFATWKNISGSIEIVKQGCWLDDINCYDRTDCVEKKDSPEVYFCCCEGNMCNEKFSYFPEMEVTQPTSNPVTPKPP
notes: not shown: linker and mouse Fc domain
B7: the binding result with BMP5 [12] is “binds”.
